# Source: the supplement of paper PMC3724861
# This is one part of the list.
# Test system: T1, Caupolican (Caup) homeodomain DNA-binding domain
# T1 sequence: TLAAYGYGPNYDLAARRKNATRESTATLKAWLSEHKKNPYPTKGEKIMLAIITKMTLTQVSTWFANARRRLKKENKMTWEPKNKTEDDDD
# Experiment: PBM E-score (8-mer, recovered from the published 9-mer minima) (E-score (dimensionless, -0.5 to 0.5)); Drosophila protein; higher = stronger relative binding preference, active = 0.31 or more
# Summary of the method: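 An enrichment score, with higher meaning stronger, expresses relative binding preference for each short DNA word. The protein used was Caup's homeodomain DNA-binding domain (residues 214-303), produced by in vitro transcription and translation and tested at 100 nM on custom-designed protein binding microarrays. The 8-mer values were recovered from published 9-mer scores, each equal to the lower of its two constituent 8-mer scores.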
row,Sequence,PBM E-score
1,GCAAAGGC,inactive: -0.087
2,CACAACCC,inactive: -0.021
3,GAAGAGAC,inactive: -0.0126
4,AACAGCTA,inactive: 0.189
5,CCGCCCTA,inactive: -0.205
6,AATACGAA,inactive: 0.158
7,GTAGAAGA,inactive: -0.0473
8,CATTTAGC,inactive: 0.0719
9,AGCGTGCG,inactive: -0.16
10,CCATATAA,inactive: 0.0843
11,GGAAGAAA,inactive: -0.0587
12,AAGAAGGG,inactive: -0.15
13,TAGGGACA,inactive: 0.11
14,GCCAGGAC,inactive: -0.128
15,ATGCAAGG,inactive: -0.0685
16,AGTTTGGA,inactive: 0.04
17,AAAATATA,inactive: 0.158
18,AAACCTAG,inactive: -0.0413
19,GCAGCCCA,inactive: -0.15
20,ATATAACC,inactive: 0.0533
21,GCCGCACA,inactive: -0.0469
22,CCCTTTGA,inactive: -0.0651
23,GATTTGCC,inactive: -0.0122
24,CTATAAAG,inactive: 0.00838
25,AGCTACCA,inactive: 0.0492

row,Sequence,PBM E-score
1,AAGTTCAA,inactive: 0.0707
2,AATCTCCC,inactive: -0.0793
3,GAGCCAAA,inactive: -0.101
4,TCAACTCA,inactive: 0.0084
5,AATCAGGT,inactive: 0.136
6,AAACAGGT,inactive: 0.171
7,CAATTAAG,inactive: 0.0577
8,AGCTGTTC,inactive: 0.0293
9,CTGTGGCC,inactive: -0.17
10,CACCCATC,inactive: -0.0606
11,AAAGCAAA,inactive: 0.0731
12,GACCGTGA,inactive: -0.039
13,CGCAACCA,inactive: -0.0345
14,CAACGCTA,inactive: -0.0166
15,CTTTGGGC,inactive: -0.164
16,AATGCGCT,inactive: -0.00804
17,ACGAATGG,inactive: -0.00234
18,CCAGAGAC,inactive: -0.109
19,AGTTGACC,inactive: -0.0917
20,GATTTCTA,inactive: -0.101
21,CGACGGTA,inactive: -0.06
22,CATTGCAG,inactive: 0.0838
23,GTCAAGGA,inactive: 0.0869
24,CGAGAGGA,≥ -0.058
25,ATAGCTAG,inactive: 0.0155

row,Sequence,PBM E-score
1,GCTAACCC,inactive: -0.135
2,CCCAGCAA,inactive: -0.09
3,ACAGGAAG,inactive: 0.0672
4,GAAGAACA,inactive: 0.3
5,AAACCTAA,inactive: -0.0381
6,TAGGTGCA,inactive: -0.00357
7,ACACAGCT,inactive: 0.109
8,CCAACAAA,inactive: 0.166
9,TCATCACA,inactive: 0.14
10,GAAGATTA,inactive: 0.0403
11,AACGAATT,inactive: 0.117
12,CAACTTGA,inactive: 0.0844
13,ATGGGGGA,inactive: -0.179
14,ACTGAGCA,inactive: 0.0738
15,AAAGAAGT,inactive: 0.0392
16,AGATGGAC,inactive: 0.0396
17,GTCGATAA,inactive: 0.0563
18,ATTCGGTA,≥ 0.116
19,ACGCACGG,inactive: -0.132
20,CAGGTGCC,inactive: -0.177
21,GACTCATC,inactive: -0.0874
22,AGCCAAAG,inactive: -0.132
23,AATTAAGG,inactive: 0.0103
24,CATTCGAG,inactive: 0.00301
25,TCTCGGAA,inactive: -0.0231

row,Sequence,PBM E-score
1,CGTGCAGA,inactive: -0.114
2,CCGTGTGA,inactive: 0.0813
3,GGCTCCGA,inactive: -0.152
4,TGCGACCA,inactive: -0.069
5,AAATGTGC,inactive: 0.0201
6,AATTCAGT,inactive: 0.017
7,AATACGCT,inactive: 0.0431
8,AAGAACCA,inactive: 0.0468
9,CAGGGAAC,inactive: -0.0152
10,GGTCACTA,inactive: -0.0884
11,ATTTGAGG,inactive: -0.045
12,GTTGGTGA,inactive: 0.0582
13,ACATGAAA,active: 0.314
14,CATATGGC,inactive: 0.0643
15,CAGATGGC,inactive: -0.0362
16,CGGGACAA,inactive: 0.0647
17,AATTACAT,active: 0.385
18,GTAAATGA,inactive: 0.17
19,AAAGCTCG,inactive: -0.0924
20,GGTCTACA,inactive: 0.146
21,ATCGGTCG,inactive: -0.076
22,AACGCAAC,inactive: 0.0993
23,ACTAATAT,inactive: 0.215
24,GATGTAGA,inactive: 0.208
25,ATTCGGAC,inactive: 0.0206

row,Sequence,PBM E-score
1,GGCACCAA,inactive: -0.0973
2,AAAAAGGC,inactive: -0.0834
3,ACTGCCCT,inactive: -0.128
4,ACCCATAC,inactive: 0.083
5,AAAGTGCA,inactive: 0.0417
6,AAGGAGGG,inactive: -0.196
7,CTACCTCC,inactive: -0.0693
8,ACACTGCG,inactive: -0.0465
9,CAAACGGA,inactive: -0.137
10,GTAACTCA,inactive: -0.031
11,GAGACGCC,inactive: -0.214
12,AATGGTAT,inactive: 0.153
13,AGACACGC,inactive: 0.174
14,AACTGAGT,inactive: 0.0536
15,CCTCCTCA,inactive: -0.128
16,AGCCCAGG,inactive: -0.286
17,GACTTGTA,active: 0.38
18,TCCAGACA,inactive: 0.0423
19,TCGGCCGA,inactive: -0.111
20,TAGCGAAA,inactive: -0.0311
21,TAGCTACA,inactive: 0.223
22,ACAGCTGT,≥ 0.0661
23,ATCAAAGC,inactive: -0.0471
24,ATGTGATG,inactive: 0.19
25,CCCCACAC,inactive: -0.217

row,Sequence,PBM E-score
1,CCCCTTTC,inactive: -0.237
2,ACATAGAT,inactive: 0.217
3,CGCGGCGC,inactive: -0.216
4,ATCGCTGA,inactive: -0.0435
5,CAAGAGAC,inactive: -0.0204
6,GGAGAAAC,inactive: -0.0682
7,TCACCGGA,inactive: -0.032
8,CCCCAATC,inactive: -0.137
9,TATCGGCA,inactive: -0.0349
10,ACAACCGC,inactive: 0.11
11,TTCAGCAA,inactive: 0.0762
12,ACTCGGAA,inactive: 0.0262
13,GCAACAGC,inactive: -0.0639
14,CGGGAGTA,inactive: 0.00308
15,AATTTGAT,inactive: 0.0195
16,CGTCGCTC,inactive: -0.0977
17,ATTTCGAC,inactive: 0.047
18,GGGCCCAC,inactive: -0.259
19,ACCGCTCA,inactive: -0.0439
20,GAAACTCA,inactive: 0.00452
21,GCAATCCA,inactive: 0.00806
22,AAGAGCGA,inactive: -0.0696
23,CGAAACAA,inactive: 0.22
24,ACCCTAGT,≥ 0.0534
25,ACCAAATG,inactive: 0.0564

row,Sequence,PBM E-score
1,GTCATGAC,inactive: 0.183
2,ACCATATA,inactive: 0.198
3,CGACTGCG,inactive: -0.135
4,GGGGTGCA,inactive: -0.111
5,CGTGGCCC,inactive: -0.262
6,AATCTCGA,inactive: -0.00814
7,CGGATAAG,inactive: -0.0309
8,CGTACAAC,active: 0.31
9,ATGCACGC,inactive: 0.0688
10,ACATCAGT,inactive: 0.221
11,CGGTGTTA,inactive: 0.179
12,ATGCGGGC,inactive: -0.129
13,CAAGAAAC,inactive: 0.128
14,CCCCCCGA,inactive: -0.311
15,ATGGTCCG,inactive: -0.0516
16,GTCCTGCA,inactive: 0.00365
17,ACATTTCG,inactive: 0.121
18,AAGCACGC,inactive: -0.0856
19,GACCTATC,inactive: -0.0604
20,GCCCTAGA,inactive: -0.159
21,CATGAGCG,inactive: -0.0996
22,AATAAACT,inactive: 0.0911
23,GAAAGTTA,inactive: 0.0815
24,CGAGACAG,inactive: 0.0937
25,ACGTTGTC,≥ 0.273

row,Sequence,PBM E-score
1,ATGAGTAG,inactive: 0.0743
2,GCCCCGTA,inactive: -0.155
3,CAACCCAA,inactive: 0.0477
4,GGCCACTA,inactive: -0.098
5,TGCCCACA,inactive: -0.0755
6,GGTTGGAA,inactive: -0.127
7,ACCAGGCT,inactive: -0.045
8,AGTCGCAG,inactive: -0.185
9,TCCTACAA,inactive: 0.207
10,ATTCCATA,inactive: 0.0634
11,CCACCATC,inactive: -0.132
12,CGCCCGAA,inactive: -0.106
13,AAACTCAG,inactive: -0.0185
14,AAATGCTC,inactive: -0.0227
15,AGCAATTC,inactive: -0.00694
16,AGGGCGCG,inactive: -0.268
17,GATGAAAA,inactive: 0.0936
18,CTTCAACA,inactive: 0.225
19,CCTCAGTC,inactive: -0.107
20,AAAAAAAG,inactive: -0.0436
21,AAAACACA,inactive: 0.216
22,AAGTCGAC,inactive: 0.0593
23,AGGAGCCC,inactive: -0.258
24,CCTCGGCG,inactive: -0.163
25,AACGGTCG,inactive: -0.0935

row,Sequence,PBM E-score
1,TGGGCTAA,inactive: -0.126
2,AAAATTTC,inactive: -0.0281
3,ACGTCAAT,inactive: -0.00307
4,CACCGCGA,inactive: -0.0295
5,ATGCAGCA,inactive: -0.00107
6,CAACGGTG,inactive: -0.0109
7,ACCGTCCA,inactive: -0.166
8,CAACTATA,inactive: 0.129
9,AAAACGCT,≥ 0.0147
10,AGGAATTC,inactive: -0.0383
11,TGAATTAA,inactive: 0.101
12,CCTTCACC,inactive: -0.199
13,AGATTGGG,inactive: -0.00878
14,ACGGGGTG,inactive: -0.0587
15,ACAAGCTA,inactive: 0.275
16,ACGAGCCG,inactive: -0.0432
17,CGACGGCC,inactive: -0.133
18,TCTTATCA,≥ 0.164
19,AATGTTTA,inactive: 0.213
20,CGATTTAC,inactive: 0.0251
21,ATTACCCA,inactive: 0.103
22,GATCGCCC,inactive: -0.0925
23,ACTAGGTC,inactive: 0.038
